# Measured values from the supplement of paper PMC11417369.
# The list shows a part of the results.
# System: PfHDP1 homeodomain (GST-tagged)
# Test: gcPBM binding intensity (ln(normalized median fluorescence intensity)); higher = stronger DNA binding
# Summary of the method: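 An Agilent 4 × 180k array of primer-extended double-stranded 36-bp intergenic genomic probes, with negative controls, was incubated for 1 h with GST-tagged P. falciparum DNA-binding domains expressed in E. coli. Alexa488 anti-GST antibody detected bound protein, scanned at 488 nm. Binding intensity is the highest Masliner-normalised natural-log median intensity across replicate spots of either probe orientation.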
row,Sequence,gcPBM binding intensity (ln)
1,CAAATAATATTATGAAGTACTTCAAATTTTGAAAGA [XGTACX_site2530],6.59
2,TCTTATAAACTCTGCACACATAATATATTAAATGAG [CACACA_site1936],8.5
3,AATATAGGTATATCCACACACATATTTATATTTATA [CACACA_site6867],6.44
4,TAATATATGTTATATACACACATATAAATATAAATA [CACACA_site6339],6.63
5,TGTGTATAAGTCACTTGTACTAGTAGTAAAAAAAAA [XGTACX_site4341],6.38
6,TGAAGTATAATTTATCTAATATGTTATATTTTATTT [TGCATGCA_negctrl_site56],5.79
7,GTGAGTGAAATATGCAAACACACACCCGAAAAATGT [CACACA_site3197],6.76
8,TATGATTTTAATGAAACACACAATTTTATGTTAATA [CACACA_site311],6.14
9,TATAAAGGTATACAAAGTACAAAATACATATATACT [XGTACX_site6431],6.14
10,TAAAGTTTTTCCTATCTATATTTATATTATAAATGA [XGTACX_negctrl_site20],6.14
11,AACAGATAATATAAAAAAAAAAAAAAAAATAATTAA [GTGCAC_negctrl_site69],5.87
12,TGAATAAATCAAAGCACACATACACAGACATATATA [CACACA_site4316],6.85
13,CTTGTCATTTGGCACACACACATGTATAGGTTATTA [CACACA_site5656],6.72
14,TATATAAATAAACACACACACACCTTATAATTATTA [CACACA_site9345],6.96
15,TTTTAGTTATTGTATTATTATTAATATATAATATCT [CACACA_negctrl_site1528],6.42
16,AAAGCATGTTAATATGTATAAATACTGATCATTCAC [GTGCAC_negctrl_site576],6.14
17,CTAAAATGTAAAAACGCACACATAATATTATAAAAA [CACACA_site2788],7.31
18,TTTTGTTATTATGAAGTGCATTTATGTTCATGTCTA,8.03
19,AAAAAAAAAAAAAATTCACACAAGACTACTACATTT [CACACA_site4195],6.19
20,AAAATCTAATATAATGCACACATAAAAAAAAATCAA [CACACA_site9211],9.65
21,ATATTAATTTCTCATGCATGTTCTACCCAATTGTAA [TGCATGCA_site355],7.03
22,TATATTATATATATACTGCACTGTTTTACAAAATTA,7.33
23,AATATTAAAAACAAAACACACAAAAAAAAATAAAAT [CACACA_site702],6.9

row,Sequence,gcPBM binding intensity (ln)
1,ACCCTTTTATATAAGAGTACAAACGTATTATTAAAT [XGTACX_site2221],6.49
2,ATATATGACTAATAAAGTACATACTTCATATAATTA [XGTACX_site6699],6.51
3,GTAGTGGTTGAATATACACACATATATATATATATA [CACACA_site2651],9.39
4,AACGTGTATTTATATTGTACACATTCATACATCAAA [XGTACX_site3644],6.7
5,AGATAATAGGTTACTTGTACATATAAATAAATATAT [XGTACX_site158],6.04
6,TGTACGAGTCGTAGAGTGCAGTCTGGAGAAAAGTAC [GTGCAC_site9683],7.5
7,TATATATATATATATACACACTTGTGCAGAATATTA [CACACA_site5257],9.57
8,AAAAAAAAAATAAAATAAAATATATTATATATATTA [GTGCAC_negctrl_site431],5.91
9,GAATAAATAATTAACACACACAATCTTTTTTTTTTT [CACACA_site3140],6.35
10,TATATATATATATATGTACACACATCAATCATATTA [CACACA_site8594],9.43
11,TCACTTTTTATTAAATGTACATGCTTTCATTTTCAT [XGTACX_site8139],6.78
12,TATTTTTTTTTTTTTTGTACACATAATTGTAATCGT [XGTACX_site8415],6.55
13,CCACAGGATTGGTTCAAACACACATATTATATGACT [CACACA_site661],6.55
14,CATATAAAAATGTGCACACACACACCGATATATATT [CACACA_site4940],10.8
15,ATATATAAATATATATGTACATAAATATATATCTTT [XGTACX_site6910],6.47
16,AAGAAAAAAAAAAAAACACACATATATATATATATA [CACACA_site2027],9.21
17,TATAAATAGAGGAAGCGTACATATATATATATATAT [XGTACX_site4993],9.4
18,TGTATACCTTAATATACACACATACCTATATTTATA [CACACA_site6746],6.43
19,GGATATTAATAAATATGTACATATGTAGATTTATTA [XGTACX_site554],6.51
20,ATAAGGTTACAACAAACACACAAAGGAATATACACA [CACACA_site7840],6.97
21,AAAATTTTTTGAAATAGTACTTTTTTATATATATAT [XGTACX_site2634],8.37
22,TTTTTCTTATTTGGATTGCACTACATATATATATAT,9.21
23,GAACTCATTACAAAGTGTACAAATTAAATAAATGGT [XGTACX_site3995],6.69

row,Sequence,gcPBM binding intensity (ln)
1,AGGTGCTTAATATATACACACATACAGATATATATA [CACACA_site5552],7.19
2,TATAAATTTATATATGCATGTCAGAAAAAAAAGTAA [TGCATGCA_site414],7.17
3,CAACAAAATAAACACACACACACAAACACAAAAAAA [CACACA_site5806],6.82
4,TATAAATGTGTATGCGCATGTAAAAATATAATTTAT [TGCATGCA_site750],7.86
5,GTAAATAATAAACACCGTACATGGTATAATTCAATG [XGTACX_site3655],6.25
6,AAATAAATAAATAGACGTACAAAAATATTATACATT [XGTACX_site6776],5.96
7,GATATGATGTGTTTGGTAGTTTTTGATGTTGGCATG [GTGCAC_negctrl_site506],6.61
8,AATAATGAAAAAATGAATAAAATTACTATATAATTC [XGTACX_negctrl_site457],6.02
9,AACGATATATGTACTACACACATTATGTCATCCTAT [CACACA_site2464],6.54
10,CAAAAAGGAATGTATGCACACAATTGATTTTAACTC [CACACA_site1468],9.32
11,ATATATATATTATATAGTACAGAGTATACTATTATA [XGTACX_site1893],7.85
12,ACAAAAGGGGAATACACACACATATATATATATATA [CACACA_site2215],9.37
13,GATCTAAAAACAAGGTGTACAAGAAAAAAAAAAAAA [XGTACX_site7577],6.27
14,TATTTATTTATTTAATGTACAAAAGAACAAGAATTT [XGTACX_site2248],6.16
15,TATGTATATACATAAACATGCAAAAACAATATCTTA [TGCATGCA_site950],6.55
16,TTCTTCTGTTTTATTACACACCATTTTGTGTATACA [CACACA_site7059],7.39
17,TCTTAATCGTATTATTACTATAATTATATAATATTT [CACACA_negctrl_site1594],6.68
18,GGAAAAATATAATATGCATGTTATTATTTTTTTATA [TGCATGCA_site836],6.21
19,ATATATATATAATGTTGTACATAAATATTATATTTA [XGTACX_site5225],8.51
20,TTTTTATTTATTCTCTTTGTATTATAAAATAAAAGC [XGTACX_negctrl_site253],6.39
21,ACATGTGAATTTTAGGTGCACTTGTAATTTAACATT,9.6
22,TTTTTTTTCAATGGCACACATTTTAGATTTATGCTT [CACACA_site4735],6.35
23,TTCTTTTATGATAATTGTACCCTTTTTAAAAAGAAA [XGTACX_site7815],6.68

row,Sequence,gcPBM binding intensity (ln)
1,ATAATGAAAAGAAAGGGTACAAAAAAAAAAAAAAAT [XGTACX_site3350],6.54
2,AACTGATTATTTTTTTGTACATATATAATAATATAT [XGTACX_site5953],6.71
3,CATAAATAATATATTTGTACGAATAAAATTTGTTCA [XGTACX_site3445],6.22
4,TAAAACAATATAAAATGTACAGAATTTTTTTTTCTT [XGTACX_site6820],6.07
5,CAATGAAAAATAATGAGTACATAGTTAATAAAGATA [XGTACX_site72],6.6
6,TTTAAAGTTTTATACACACACCAAAGTTATTCTAAT [CACACA_site6432],6.52
7,ATAATTAAAATTAAATGTACTTTTTTATATATTTTT [XGTACX_site2209],6.21
8,AATTTCTTTTTCGATATACACACTGTATGTGTCTAA [CACACA_site3975],6.72
9,TATATACATATATGCACACAAAAAAATATATATTTT [CACACA_site1729],10.1
10,ATATGGATTATACATACATGCATACATACATACATA [TGCATGCA_site475],6.58
11,AATGATACACATATATGTACATATATATATATATAT [XGTACX_site5391],9.33
12,TGCAATATATCAAAGTGTACATGCAATAAAAAAAAA [XGTACX_site652],7.07
13,AAAATTTAATATAATGCACACATAAAACAAAAACAA [CACACA_site8071],9.14
14,AAATGTAGAAAAAGTTGTACACTGTTTCAAAAATAA [XGTACX_site1063],6.47
15,TATAATATAAAAATGAGTACATAGATAATAATATTT [XGTACX_site2376],6.56
16,TTTTTTTTTTATTAATGTACAAGATATATAATGTTA [XGTACX_site4809],6.16
17,ATATTTTATTATATAGGTACACATAATTTCATGTAA [XGTACX_site415],6.34
18,ATCTTAATTTTTGAAGGTACACACTAATATATTAAA [XGTACX_site2292],6.57
19,TATATAGTAAATATTTGTACATAATAAAATATATGT [XGTACX_site7873],6.25
20,TTTTGTACATCTTTTGCACACGTAATGTTATTATAA [CACACA_site1259],10.6
